According to PubChem BioAssay (Tox21):
Several values for one entry are separate records, joined by “and”; a condition that tells them apart may be missing. Equal entries are not always repeated. The inconclusive results got no clear call from the source; some entries with a clear call stand among them for comparison. Potencies of inconclusive entries are doubtful fits and often do not repeat. Some compounds were tested as several samples or in several runs, with calls that do not always agree. Activity calls are given as the source filed them. Unless noted, calls follow the shape of the dose curve; as a rule, active = well fitted curve in the direction sought with a large enough effect in the repeat runs; inconclusive = weak or mixed curves; inactive = no such curve, though single readings can be large; an effect the other way counts as inactive or inconclusive.

Columns and labels:
[1] = qHTS assay to identify small molecule antagonists of the peroxisome proliferator-activated receptor gamma (PPARg) signaling pathway - cell viability counter screen (AID 743194); settings: PPARg-bla HEK293H viability, CellTiter-Glo luminescence, 17 h; Potency: co-treated with 50 nM rosiglitazone unless noted; activity change, negative = cytotoxicity: at 62.6 µM (top of the series), co-treated with 50 nM rosiglitazone unless noted; also: nearly all actives have a fitted effect of over 55% in size; as to activity change, negative = cytotoxicity: % is scaled to controls: 0 for no effect and ±100 for the full control effect
How it was run: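 Cytotoxicity counter screen in PPARg-bla HEK293H cells, same wells as reporter assay. Compounds plus 50 nM rosiglitazone (final) for 17 h at 37 C, then viability read by CellTiter-Glo luminescence.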

[2] = qHTS assay for small molecule activators of the heat shock response signaling pathway - cell viability counter screen (AID 743209); settings: HSE-bla HeLa viability, CellTiter-Glo luminescence, 5 h; activity change, negative = cytotoxicity: at 62.6 µM (top of the series) unless noted; also: nearly all actives have a fitted effect of over 50% in size
How it was run: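 To flag cytotoxic compounds, HSE-bla HeLa cells plated at 1500 cells/well were dosed for 5 h at 37 C, followed by the reporter FRET read and then CellTiter-Glo, with luminescence recorded 30 min after reagent addition.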

[3] = qHTS assay to identify small molecule antagonists of the peroxisome proliferator-activated receptor delta (PPARd) signaling pathway - cell viability counter screen (AID 743213); settings: PPARd-bla HEK293H viability, CellTiter-Glo luminescence, 17 h; viability change, negative = cytotoxic: at 62 µM (top of the series) unless noted; also: nearly all actives have a fitted effect of over 50% in size
How it was run: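 Luminescence from CellTiter-Glo, added after the bla read and incubated 30 min at room temperature, gives viability of HEK293H PPARd-bla cells exposed to compounds for 17 h at 37 C with 300 nM L165041.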

[4] = qHTS assay for small molecule agonists of the antioxidant response element (ARE) signaling pathway - cell viability counter screen (AID 743203; calls by dose curve; also: nearly all actives have a fitted effect of over 55% in size); settings: ARE-bla HepG2 viability, CellTiter-Glo luminescence, 16 h; viability change, negative = cytotoxic: at 73.3 µM (top of the series)
How it was run: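 Parallel cytotoxicity read-out for the ARE-bla screen: HepG2 reporter cells, 16 hrs with compounds, then CellTiter-Glo luminescence.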

[5] = qHTS assay for small molecule activators of the heat shock response signaling pathway (AID 743210; active = well fitted activation curve with a large enough effect in the signal ratio in the repeat runs, with a control signal flat, not every such curve was filed as active; inconclusive = weak or mixed curves; the % refers to the signal ratio); settings: HeLa HSE-bla reporter, beta-lactamase ratio, 5 h; activation: at 62.6 µM (top of the series) unless noted
How it was run: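 Following overnight attachment, HSE-bla HeLa cells received test compounds for 5 h at 37 C; beta-lactamase activity was then detected via FRET substrate fluorescence.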

[6] = qHTS assay to identify small molecule agonists of the peroxisome proliferator-activated receptor delta (PPARd) signaling pathway - cell viability counter screen (AID 743211); settings: PPARd-bla HEK293H viability, CellTiter-Glo luminescence, 17 h; activity change, negative = cytotoxicity: at 62.6 µM (top of the series); also: nearly all actives have a fitted effect of over 55% in size; as to activity change, negative = cytotoxicity: % is scaled to controls: 0 for no effect and ±100 for the full control effect
How it was run: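 Viability of GeneBLAzer PPARd UAS-bla HEK293H cells was assessed after 17 h compound incubation at 37C, using CellTiter-Glo reagent added after the reporter read and luminescence recorded 30 min later.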

[7] = biological target: Peroxisome proliferator-activated receptor delta (Homo sapiens) (UniProt Q03181); experiment: qHTS assay to identify small molecule antagonists of the peroxisome proliferator-activated receptor delta (PPARd) signaling pathway (AID 743215; active = well fitted inhibition curve with a large enough effect in the signal ratio in the repeat runs, not every such curve was filed as active; inconclusive = weak or mixed curves, or effect the other way; inactive = no such curve, though single readings can be large or run the other way; the % refers to the signal ratio;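 also: cells stimulated with agonist L165041 at 300 nM final during compound exposure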; as to ratio activity, negative = inhibition: % is scaled to controls: 0 for no effect and ±100 for the full control effect); settings: HEK293H PPARd-UAS-bla, beta-lactamase FRET ratio, antagonist, 17 h
How it was run: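 Screen format: qHTS, antagonist mode. HEK293H PPARd-bla cells received compound and 300 nM L165041 (final), 17 h, 37 C. Beta-lactamase detected via FRET substrate fluorescence, 2 h, room temperature.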

[8] = biological target: Peroxisome proliferator-activated receptor delta (Homo sapiens) (UniProt Q03181); experiment: qHTS assay to identify small molecule agonists of the peroxisome proliferator-activated receptor delta (PPARd) signaling pathway (AID 743212; calls by dose curve; as to activation: % is scaled to controls: 0 for no effect and ±100 for the full control effect); settings: HEK293H PPARd-UAS-bla, beta-lactamase FRET ratio, 17 h; activation: at 62.6 µM (top of the series) unless noted
How it was run: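 Tox21 library screened in GeneBLAzer PPARd UAS-bla HEK293H cells. After compound treatment at 37 C, a FRET-based beta-lactamase substrate was applied for 2 h and fluorescence recorded.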

[9] = qHTS assay for small molecule agonists of the antioxidant response element (ARE) signaling pathway (AID 743202; active = well fitted activation curve with a large enough effect in the signal ratio in the repeat runs, not every such curve was filed as active; inconclusive = weak or mixed curves, or effect the other way; inactive = no such curve, though single readings can be large or run the other way; the % refers to the signal ratio); settings: HepG2 ARE-bla reporter, beta-lactamase FRET, 16 h; activation: at 73.3 µM (top of the series) unless noted
How it was run: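 HepG2 ARE-bla cells; 16 h treatment at 37 C; FRET-based beta-lactamase fluorescence read after 2 h substrate incubation at room temperature.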

[10] = biological target: Bile acid receptor (Homo sapiens) (UniProt Q96RI1); experiment: qHTS assay to identify small molecule antagonists of the farnesoid-X-receptor (FXR) signaling pathway (AID 743217; active = well fitted inhibition curve with a large enough effect in the signal ratio in the repeat runs, not every such curve was filed as active; inconclusive = weak or mixed curves, or effect the other way; inactive = no such curve, though single readings can be large or run the other way; the % refers to the signal ratio); settings: HEK293T FXR-UAS-bla, beta-lactamase ratio, CDCA-stimulated, 16 h; activity change, negative = inhibition: at 62.6 µM (top of the series) unless noted
How it was run: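 Quantitative HTS, beta-lactamase reporter format: FXR-UAS-bla HEK 293T cells co-treated 16 h at 37 °C with compounds and 50 uM final chenodeoxycholic acid, then read by B/G FRET fluorescence.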

[11] = ratio activity, negative = inhibition: at 62 µM (top of the series) unless noted
Potency is read from the fitted curve at half-maximal effect; tags tell the direction and shape of the fitted curve or compound fluorescence and quenching.

Chain of UniProt Q96RI1 (Q96RI1 whole entry, looked up): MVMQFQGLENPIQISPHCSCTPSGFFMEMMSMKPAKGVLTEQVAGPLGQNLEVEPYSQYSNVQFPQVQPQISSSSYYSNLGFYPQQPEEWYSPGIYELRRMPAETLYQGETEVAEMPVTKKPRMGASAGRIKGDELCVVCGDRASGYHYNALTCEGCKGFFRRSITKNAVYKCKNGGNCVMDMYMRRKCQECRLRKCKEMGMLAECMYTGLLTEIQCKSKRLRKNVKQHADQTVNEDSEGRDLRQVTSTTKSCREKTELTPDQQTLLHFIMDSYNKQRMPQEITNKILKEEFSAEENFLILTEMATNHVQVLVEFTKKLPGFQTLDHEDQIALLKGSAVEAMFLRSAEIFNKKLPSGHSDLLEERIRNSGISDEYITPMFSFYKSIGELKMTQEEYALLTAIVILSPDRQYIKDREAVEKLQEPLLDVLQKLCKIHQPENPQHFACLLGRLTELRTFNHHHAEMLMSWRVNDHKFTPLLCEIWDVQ
Chain of UniProt Q03181 (Q03181 whole entry, looked up): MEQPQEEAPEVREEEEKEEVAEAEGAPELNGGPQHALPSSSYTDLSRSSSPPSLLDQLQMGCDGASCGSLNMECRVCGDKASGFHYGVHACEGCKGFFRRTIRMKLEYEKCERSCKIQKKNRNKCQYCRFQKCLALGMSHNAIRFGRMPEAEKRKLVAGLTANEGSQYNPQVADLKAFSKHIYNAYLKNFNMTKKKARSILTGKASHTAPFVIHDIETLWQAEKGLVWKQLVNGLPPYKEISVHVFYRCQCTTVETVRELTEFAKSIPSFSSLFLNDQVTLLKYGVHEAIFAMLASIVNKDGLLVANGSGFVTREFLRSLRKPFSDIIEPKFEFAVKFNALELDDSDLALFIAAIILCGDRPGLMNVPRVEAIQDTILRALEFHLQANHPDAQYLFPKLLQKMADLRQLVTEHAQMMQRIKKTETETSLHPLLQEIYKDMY

In the case of `[Cl-].[Cl-].[Hg+2]`, the Potency [1] is reported as active: 21.8 µM and active: 21.9 µM, the Potency [2] is reported as active: 3.87 µM and active: 30.9 µM and the Potency [3] is reported as active: 2.44 µM and active: 1.74 µM.
With `Clc1ccc(COC(Cn2ccnc2)c2ccc(Cl)cc2Cl)cc1` (stereo not given) the Potency [1] was active: 20.4 µM and active: 19.4 µM and active: 29.8 µM, the Potency [4] was active: 25.5 µM and active: 19.3 µM and active: 33.5 µM and the Potency [2] was active: 36.3 µM and active: 12.3 µM and inconclusive: 33.5 µM [cytotoxic, partial curve, poor fit]. The Potency [5] was inconclusive: 16.8 µM and inconclusive: 12.7 µM and inconclusive: 11 µM, the Potency [6] was active: 16.2 µM and active: 17.3 µM and active: 21.1 µM and the Potency [3] was active: 40.7 µM and active: 24.4 µM and inconclusive: 33.5 µM [cytotoxic, single point]. For the same molecule, the Potency [7, 11] was inconclusive: 18.2 µM [inhibitor] and inconclusive: 48.8 µM [cytotoxic, single point] and inconclusive: 33.5 µM [inhibitor, single point].
With `O=C(CCl)CCl` the Potency [1] was inconclusive: 9.03 µM [cytotoxic, partial curve, poor fit] and active: 21.9 µM, the Potency [4] was inconclusive: 10 µM [cytotoxic, partial curve, poor fit] and active: 19.3 µM and the Potency [2] was active: 12.3 µM. For the same molecule, the Potency [5] was inconclusive: 43.6 µM and the Potency [6] was “inactive and active: 54.9 µM”.
For `NNC(=O)c1ccccc1`, the Potency [1] was “inactive”, the Potency [2] was inconclusive: 25.2 µM [rising, partial curve, poor fit] and the Potency [7, 11] was “inactive”.
In the case of `Clc1ccc(C(c2ccccc2Cl)C(Cl)(Cl)Cl)cc1` (stereo not given), the Potency [1] is reported as inconclusive: 43.9 µM [cytotoxic, partial curve, poor fit] and inconclusive: 40.5 µM [cytotoxic, single point], the Potency [4] is reported as inconclusive: 45.1 µM [cytotoxic, partial curve] and the Potency [2] is reported as inconclusive: 55.3 µM [cytotoxic, single point]. The Potency [8] was inconclusive: 62.1 µM and the ratio activity, negative = inhibition [7, 11] was inconclusive: -0.305% [at 80.4 µM].
For `CCC(=O)O[C@H]1CC[C@H]2[C@@H]3CCC4=CC(=O)CC[C@]4(C)[C@H]3CC[C@]12C`, the Potency [1] was active: 49 µM [setting not given], the Potency [2] was active: 54.9 µM and the Potency [5] was inconclusive: 56 µM. The Potency [8] was inconclusive: 61.6 µM.
With `CCCCCCCCCCCCCCn1cc[n+](C)c1` the Potency [1] was active: 9.79 µM [setting not given] and inconclusive: 19.3 µM [cytotoxic, partial curve, poor fit] [setting not given], the Potency [2] was active: 19.5 µM and active: 21.6 µM and the Potency [5] was inconclusive: 40.5 µM [cytotoxic] and inconclusive: 56.5 µM and inconclusive: 54.9 µM. For the same molecule, the Potency [8] was inconclusive: 55 µM and inconclusive: 61 µM [single point], the activation [8] was inconclusive: -4.05% and the Potency [3] was inconclusive: 13.8 µM [cytotoxic] and active: 21.6 µM and inconclusive: 61.6 µM [cytotoxic, single point]. For the same molecule, the Potency [7, 11] was inconclusive: 34.7 µM [cytotoxic, partial curve] and inconclusive: 61 µM [cytotoxic] and inactive.
With `Cc1cccc(N)c1N` the Potency [1] was inconclusive: 1.38 µM [rising, full curve, poor fit], the Potency [9] was active: 9.36 µM and active: 17.2 µM and the viability change, negative = cytotoxic [3] was inconclusive: -2.97% [cytotoxic] and inconclusive: 1.49% [cytotoxic].
In the case of `CC(C)(c1ccccc1)c1ccc(O)c(C(C)(C)c2ccccc2)c1`, the Potency [1] is reported as active: 15.3 µM and active: 19.5 µM, the Potency [2] is reported as active: 48.5 µM and active: 24.5 µM and the Potency [5] is reported as inconclusive: 54.4 µM and inconclusive: 52.9 µM. The Potency [6] was active: 21.7 µM and active: 19.5 µM, the Potency [8] was inconclusive: 54.4 µM [single point] and inconclusive: 54.9 µM [single point] and the Potency [3] was active: 34.3 µM and active: 43.6 µM. The Potency [7, 11] was inconclusive: 61.1 µM [cytotoxic, single point] and inconclusive: 61.6 µM [cytotoxic, single point] and the Potency [10] was inconclusive: 61.1 µM [cytotoxic, single point] and inconclusive: 61.6 µM [cytotoxic, single point].
With `CC(C)(c1ccccc1)c1cc(-n2nc3ccccc3n2)c(O)c(C(C)(C)c2ccccc2)c1` the Potency [1] was inconclusive: 0.0536 µM [rising, full curve, poor fit], the Potency [9] was “inactive” and the Potency [7, 11] was “inactive”.
In the case of `c1ccc(Nc2ccc3ccccc3c2)cc1`, the Potency [1] is reported as inconclusive: 43.6 µM [cytotoxic], the Potency [4] is reported as inconclusive: 68.6 µM [cytotoxic, single point] and the Potency [2] is reported as active: 54.9 µM. For the same molecule, the Potency [5] was inconclusive: 49 µM [falling, partial curve] and the activity change, negative = inhibition [10] was inconclusive: -17.3%.
For `CC(C)(c1ccc(OCC2CO2)cc1)c1ccc(OCC2CO2)cc1` (stereo not given), the Potency [1] was active: 55.7 µM and inconclusive: 54.9 µM [cytotoxic, partial curve, poor fit], the Potency [4] was inconclusive: 61.1 µM [cytotoxic, partial curve, poor fit] and the Potency [2] was inconclusive: 62.5 µM [cytotoxic, single point]. For the same molecule, the Potency [5] was inconclusive: 55.7 µM [single point] and inconclusive: 54.9 µM [single point], the Potency [6] was inconclusive: 55.7 µM [cytotoxic, single point] and active: 34.7 µM and the Potency [3] was inconclusive: 62500 nM [cytotoxic, single point]. For the same molecule, the Potency [7, 11] was inconclusive: 55.7 µM.
In the case of `CS(=O)(=O)c1ccc(C(=O)C2C(=O)CCCC2=O)c([N+](=O)[O-])c1`, the Potency [1] is reported as inconclusive: 0.0995 µM [rising, full curve, poor fit], the Potency [9] is reported as inconclusive: 35 µM and the Potency [8] is reported as inconclusive: 0.353 µM [rising, partial curve, poor fit]. The Potency [3] was inconclusive: 221 nM [cytotoxic, full curve, poor fit], the Potency [7, 11] was inconclusive: 0.353 µM [fluorescent, full curve, poor fit] and the activity change, negative = inhibition [10] was inconclusive: -21.5% [at 81.1 µM].
In the case of `C=Cc1cccc(CCl)c1`, the Potency [9] is reported as active: 55.9 µM.
With `O=c1[nH]c2ccccc2n1C1CCN(CCCC(c2ccc(F)cc2)c2ccc(F)cc2)CC1` the Potency [1] was active: 24.5 µM [setting not given] and inconclusive: 33.5 µM [cytotoxic, single point] [setting not given], the Potency [5] was inconclusive: 47.1 µM and inconclusive: 33.5 µM [single point] and the Potency [6] was active: 24.5 µM and active: 29.8 µM. For the same molecule, the Potency [3] was active: 21.9 µM and active: 29.8 µM.
For `Nc1ccncc1`, the Potency [1] was “inactive” and the Potency [3] was inconclusive: 2.21 µM [cytotoxic, single point] and inconclusive: 6.68 µM [cytotoxic, single point].
With `NC(=O)OCCCc1ccccc1` the Potency [9] was “inactive”.
With `C[C@@H]1C[C@@H]([C@H](O)CC2CC(=O)NC(=O)C2)C(=O)[C@@H](C)C1` the Potency [1] was inconclusive: 0.434 µM [cytotoxic, full curve, poor fit], the Potency [6] was inconclusive: 11.9 µM [cytotoxic, partial curve, poor fit] and the activation [8] was inconclusive: 3.36% and inconclusive: 10.6%. The Potency [3] was inconclusive: 866 nM [cytotoxic, full curve, poor fit], the Potency [7, 11] was inconclusive: 19.4 µM [rising, single point] and the ratio activity, negative = inhibition [7, 11] was inconclusive: -36.9%. The activity change, negative = inhibition [10] was inconclusive: -20.5%.
For `C=C(C)[C@H]1Cc2c(ccc3c2O[C@@H]2COc4cc(OC)c(OC)cc4[C@@H]2C3=O)O1`, the Potency [1] was inconclusive: 11 µM [cytotoxic, partial curve, poor fit] and inconclusive: 29.8 µM [cytotoxic, partial curve, poor fit], the Potency [5] was inconclusive: 52.6 µM and inconclusive: 49 µM and the Potency [6] was inconclusive: 24.5 nM [cytotoxic, partial curve, poor fit] and inconclusive: 3.35 µM [cytotoxic, partial curve, poor fit]. For the same molecule, the Potency [8] was inconclusive: 39.4 µM [rising, single point], the Potency [3] was inconclusive: 22.2 µM [cytotoxic, partial curve] and inconclusive: 2.75 µM [cytotoxic, full curve, poor fit] and inconclusive: 13.3 µM [cytotoxic, partial curve, poor fit] and the ratio activity, negative = inhibition ([7]; at 62 µM (top of the series)) was inactive: -17.9%. For the same molecule, the Potency [7, 11] was active: 4.9 µM and the ratio activity, negative = inhibition [7, 11] was inconclusive: -58.4% [at 80.4 µM].
In the case of `C1=Cc2cccc3cccc1c23`, the activation [9] is reported as inconclusive: -26.2% and inconclusive: 23.7%.
